# From PubChem BioAssay AID540267 (National Center for Advancing Translational Sciences (NCATS), 2011)
# The whole screen tested about 340,000 compounds, of which about 530 (0.16%) were called active. Inconclusive means that the source gave no clear call. Such entries were picked first, then a sample of the others. No stated cut-off is given here; in the data, active means activity change below about -80%; inconclusive means between about -30% and that limit; inactive means weaker than that.
# Assay: Small Molecules that selectively kill Giardia lamblia: qHTS;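 further: parasites exposed to compound for two days anaerobically before the ATP read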
# Conditions: Giardia lamblia trophozoite viability; at 7.66 µM; active compounds read low
# Summary of the method: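 Compounds were tested on trophozoites seeded at 100 cells/well and held 48 hrs at 37 deg C anaerobically. An ATP-based luminescent kit measured the remaining live cells.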
# On the % scale 0 is the no-effect control and ±100 the full control effect.
row,Compound,activity change
1,Cc1ccccc1C(=O)NC(=S)Nc1ccc2[nH]c(=O)[nH]c2c1,inconclusive: -31.7% [inhibitor]
2,Cc1ccc(OCC(=O)NCCc2nc3ccccc3[nH]2)c(C)c1,inactive: 0.309%
3,CC1CN(C(=O)COC(=O)CSc2ccc([N+](=O)[O-])cc2)CC(C)O1 (stereo not drawn),inactive: 11.1%
4,COc1ccc(CC(=O)Nc2ccc(NC(=O)c3ccccc3F)cc2)cc1,inconclusive: -30.3% [inhibitor]
5,O=C(NNC(=O)c1cc2cc(OC(F)(F)F)ccc2[nH]1)c1ccc(Cl)cc1,inconclusive: -34.5% [inhibitor]
6,CC(C)=CCC/C(C)=C/COc1c2ccoc2cc2oc(=O)ccc12,inactive: 9.02%
7,O=C(c1ccc(O)c(Br)c1)c1cc(Br)ccc1O,inactive: 2.35%
8,C/C(=N\NC(=O)c1cccs1)c1ccc(C(=O)O)s1,inactive: -8.1%
9,COc1ccc2c(c1)C(C)(CCN)C(=O)N2C (stereo not drawn),inconclusive: -41.1% [inhibitor]
10,O=C1CCCN1c1ccc(S(=O)(=O)Oc2ccc(Cl)cc2)cc1[N+](=O)[O-],inconclusive: -39.6% [inhibitor]
11,COc1ccc(-c2n[nH]c(=S)n2-c2cc(OC)ccc2OC)cc1,inconclusive: -38.3% [inhibitor]
12,CCn1cc(C(=O)N2CCN(c3cccc(Cl)c3)CC2)c2cc(OC)c(OC)cc2c1=O,inactive: 12.7%
13,CCN(CC)S(=O)(=O)c1ccc2oc(Nc3ccc(OC)cc3)nc2c1,inconclusive: -42% [inhibitor]
14,CCC1C(=O)Nc2ccccc2N1C(=O)COc1ccccc1 (stereo not drawn),inactive: 3.74%
15,CSc1ccc(NC(N)=S)cc1,inconclusive: -34.7% [inhibitor]
16,CCC12CN3CC(CC)(CN(C1)C3c1ccc([N+](=O)[O-])o1)C2=O (stereo not drawn),active: -85.8%
17,COc1ccc(CC(NC(C)=O)C(=O)NC2CCN(c3ncccc3[N+](=O)[O-])CC2)cc1 (stereo not drawn),inconclusive: -71.9% [inhibitor]
18,CCc1ccc(NC(=O)CSc2ccc(-c3ccccn3)nn2)cc1,inactive: 25.6%
19,COC(=O)c1cc(-c2ccc(S(=O)(=O)N3CCCCC3)cc2)c(C(F)(F)F)s1,inconclusive: -44.7% [inhibitor]
20,CCC(CC)C(=O)c1c[nH]c(C(=O)NCCOC)c1,inconclusive: -32.5% [inhibitor]
21,Cc1cc2cc(CNC(=O)c3ccc(S(=O)(=O)N4CCOCC4)cc3)ccc2n1C,inactive: 11.6%
22,C[C@H](C(=O)CC(=O)OC(C)(C)C)[C@H](O)c1ccc(C(F)(F)F)cc1,inconclusive: -39.7% [inhibitor]
23,COc1cc(C(=O)OC(C)CN2C(C)CCCC2C)cc(OC)c1OC (stereo not drawn),inactive: -8.97%
24,Cc1cccc(C)c1OC(=O)CSc1nnc(-c2ccccc2)o1,inconclusive: -32.2% [inhibitor]
25,O=S(=O)(c1ccccc1)N1CCN(c2cccc(Cl)c2)CC1,inconclusive: -40.7% [inhibitor]
26,O=[N+]([O-])c1ccc(N2CCN(c3ccc(O)cc3)CC2)cn1,inconclusive: -39.6% [inhibitor]

row,Compound,activity change
1,CC1CCCN(C(=O)c2ccc([N+](=O)[O-])o2)C1 (stereo not drawn),active: -84.3%
2,COc1ccc(NS(=O)(=O)c2cc(NC(=O)c3ccc(=O)[nH]c3)ccc2C)cc1,inconclusive: -49.6% [inhibitor]
3,COc1ccccc1NS(=O)(=O)c1cc(NC(=O)CN2C(=O)NC3(CCCC3)C2=O)ccc1C,inconclusive: -33.7% [inhibitor]
4,COc1cccc(CNC(=O)CCNS(=O)(=O)c2ccc(Br)s2)c1,inactive: -20%
5,CN(CC(=O)Nc1ccc(OC(F)(F)F)cc1)C(=O)/C=C/c1ccco1,inconclusive: -35.5% [inhibitor]
6,COc1ccc(C(=O)N(Cc2ccccc2)c2cccc(C)c2)cc1,inconclusive: -53.6% [inhibitor]
7,COc1ccc(-n2nc([N+](=O)[O-])c(=NCCc3ccc(Cl)cc3)n2O)cc1,active: -84.1%
8,O=C(NCC1CCCO1)c1ccc([N+](=O)[O-])o1 (stereo not drawn),inconclusive: -79.1% [inhibitor]
9,Cc1ccc(S(=O)(=O)N(C)c2ccc(C(=O)Nc3cccc(C)n3)cc2)cc1,inactive: -3.73%
10,Cc1ccc(OCC(=O)NCc2cccs2)c([N+](=O)[O-])n1,inconclusive: -31.8% [inhibitor]
11,COc1ccc2c(=O)c(-c3nc(C)cs3)coc2c1,inconclusive: -32.9% [inhibitor]
12,Cc1ccc2nc(-c3ccccn3)oc2c1,inconclusive: -44.3% [inhibitor]
13,C[C@]12c3[nH]c4ccccc4c3CCN1C(=O)C(CC(=O)NCCCn1ccnc1)C[C@@H]2C(=O)N1CCOCC1 (stereo partly drawn),inconclusive: -35% [inhibitor]
14,COc1ccc(-c2cn3ccccc3n2)cc1[N+](=O)[O-],inconclusive: -36.8% [inhibitor]
15,O=C(N/N=C/c1ccccn1)c1ccc(Br)cc1,inactive: -5.77%
16,COc1cc(C2N(c3cccc(Cl)c3)C(=O)C3CCCN32)cc(OC)c1OC (stereo not drawn),inconclusive: -37.3% [inhibitor]
17,Cc1cccc(NC(=O)CSCC(=O)NCc2ccco2)c1,inconclusive: -31.5% [inhibitor]
18,Cn1nc(C(F)(F)F)c(-c2ccccc2)c1NC(=O)CCC(=O)O,inconclusive: -36.1% [inhibitor]
19,CC1(C)Cc2cccc(C(=O)NCc3ccco3)c2O1,inconclusive: -35.1% [inhibitor]
20,CC(=O)c1cccc(NC(=O)CSc2ccc(-c3cccnc3)nn2)c1,inconclusive: -30.5% [inhibitor]
21,CCOc1ccc(-c2cc(C(=O)N3CCN(C)CC3)c3ccccc3n2)cc1,inconclusive: -41.7% [inhibitor]
22,O=C(NCC(c1ccco1)N1CCc2ccccc2C1)c1ccc([N+](=O)[O-])cc1 (stereo not drawn),inactive: -7.95%
23,C[C@H](NC(=O)c1ccccc1Cl)C(=O)NCc1cccs1,inconclusive: -30.1% [inhibitor]
24,COc1cc(-c2nc3sc(C)c(C)c3c(=O)o2)cc(OC)c1OC,inconclusive: -36% [inhibitor]
25,COc1cc(NC(=S)N2CCCCC2C)c(OC)cc1Cl (stereo not drawn),inconclusive: -30% [inhibitor]
26,COc1ccc(C2C=C(C34CC5CC(CC(C5)C3)C4)NC(=S)N2)cc1 (stereo not drawn),inconclusive: -30.5% [inhibitor]

row,Compound,activity change
1,CC12CCC(C(=O)Nc3ncc([N+](=O)[O-])s3)(OC1=O)C2(C)C (stereo not drawn),active: -85.9%
2,COc1ccc(OCC(O)CNC(=O)c2sccc2Cl)cc1 (stereo not drawn),inactive: -5.02%
3,COc1ccccc1N1CCN(CC(=O)Nc2ccnn2C2CCCC2)CC1,inconclusive: -32% [inhibitor]
4,CCOc1ccc2[nH]c3nc(SCC(=O)NC4CC4)nnc3c2c1,inconclusive: -44.8% [inhibitor]
5,C#Cc1ccc([C@H]2C=C(C(=O)N3CCN(Cc4ccccc4)CC3)O[C@@H](OCC)[C@@H]2CCCO)cc1,inconclusive: -30.3% [inhibitor]
6,COc1ccc(NS(=O)(=O)c2cc(NC(=O)c3ccco3)ccc2N2CCCC2)cc1,inactive: -0.31%
7,Cn1c(=NC(=O)c2ccco2)sc2cccc(F)c21,inconclusive: -41.1% [inhibitor]
8,NC(=O)C1CCN(c2ccc(S(=O)(=O)N3CCCCC3)cc2[N+](=O)[O-])CC1,inconclusive: -31.9% [inhibitor]
9,COc1c(N2CCN(C(=S)NCc3ccccc3)C(C)C2)c(F)cc2c(=O)c(C(=O)O)cn(C3CC3)c12 (stereo not drawn),inactive: 7.65%
10,O=C(CC(=O)N/N=C/c1c(F)cccc1Cl)NCc1ccccc1,inactive: 1.64%
11,Cc1ccnc(NC(=O)CCC(=O)c2cccs2)c1,inconclusive: -69.9% [inhibitor]
12,Cc1ccc(OCC(=O)Nc2ccc(F)cc2)c([N+](=O)[O-])n1,inconclusive: -37.2% [inhibitor]
13,O=c1[nH]c2ccccc2nc1CCc1ccccc1,inconclusive: -33.2% [inhibitor]
14,C=CCNc1nc(C(=O)OCC(=O)c2ccc(F)cc2)cs1,inconclusive: -35% [inhibitor]
15,N#C/C(=C(/O)c1ccc([N+](=O)[O-])o1)c1nc2ccccc2[nH]1,active: -92%
16,Cc1ccc(C(=O)c2cc([N+](=O)[O-])ccc2N2CCCCC2)c(C)c1,inconclusive: -35.8% [inhibitor]
17,CN1CCC(OC(=O)c2cc3cc(Br)ccc3oc2=O)CC1,inconclusive: -31.7% [inhibitor]
18,O=C(CCOc1ccccc1)Nc1ccnn1C1CCN(Cc2ccc(F)cc2)CC1,inactive: -8.24%
19,CN(CC(=O)Nc1ccc(F)c(F)c1F)C1CCCCC1,inconclusive: -32.7% [inhibitor]
20,CC(C)c1ccc(-n2nc3ccc(N)cc3n2)cc1,inconclusive: -46.7% [inhibitor]
21,COc1ccc(C(=O)Nc2nc3ccccc3[nH]2)cc1,inconclusive: -74.8% [inhibitor]
22,O=C(Cc1ccc(Cl)cc1)Nc1ccc(S(=O)(=O)Nc2ncccn2)cc1,inconclusive: -37.9% [inhibitor]
23,Cc1cc(-c2n[nH]c(=S)n2/N=C/C=C/c2ccco2)n[nH]1,inactive: -2.3%
24,COc1cc(/C=C/c2ccc3cccc([N+](=O)[O-])c3n2)ccc1OCC#N,inactive: -21%
25,O=C(Nc1ccc2nc(C3CC3)n(Cc3ccc(F)cc3)c(=O)c2c1)c1ccco1,inactive: -1.66%
26,COc1cc(CC(=O)OCC(=O)Nc2ccc(Cl)c(S(=O)(=O)N(C)C)c2)cc(OC)c1OC,inconclusive: -31.3% [inhibitor]
